In PubChem BioAssay (NCI):
“And” between values parts separate entries of the source, which are not always exact repeats. Equal entries are not always repeated.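 Following 48 hours of exposure in 96-well plates, responses at five concentrations were used to interpolate endpoints linearly. Abbreviation: GI50, concentration required for 50% inhibition of growth. TGI denotes the concentration required for complete inhibition of growth.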 Peptide text beside a SMILES is read from it.

The molecules below were run on NCI-H322M lung (assay: growth of human tumour cells (NCI), 48 h).

`CC(C)(C)CC(C)(C)N=C(N)NO` and `CC(C)(C)OC(=O)NC1CCC[C@H]1O` (stereo partly specified) cannot be ordered by TGI: > 100 µM for the first, > 100 µM for the second.

First: COc1cc(O)c2c(c1)C(=O)c1cc(C)cc(O)c1C2=O
Second: COc1cc(C)c2c(=O)c3c(oc2c1)C(=O)c1c(O)c(OC)cc(O)c1C3=O
The TGI of the first is higher: > 100 µM for the first, 15.5 µM for the second.

`COc1ccc2c(c1)CC[C@@H]1[C@@H]2CC[C@]2(C)C(=O)/C(=C/c3ccncc3)C[C@@H]12` and `COc1ccc2c(c1)CCCN1Cc3cc(OC)c(OC)cc3CC21` (stereo unspecified) cannot be ordered by TGI: > 100 µM for the first, > 100 µM for the second.

Compared with `CC1(O)CC2(O)C=CC3=C(C(=O)c4cccc(O)c4C3=O)C2(O)C(=O)C1O` (stereo unspecified), `CC1OC(OC2CCCc3c(O)c4c(c(O)c32)C(=O)c2ccccc2C4=O)CC(N)C1O` (stereo unspecified) is 11-fold lower in TGI: 24.2 µM for the first, 2.24 µM for the second.

`Nc1c(C(=O)c2cccc(CCC3(O)CCCC3)c2)cnn1-c1ccc(F)cc1` and `COc1ccc(OC)c(C#Cc2ccc(OC)c(C(=O)NCCc3ccc(F)cc3)c2)c1` cannot be ordered by TGI: > 25 µM for the first, > 100 µM for the second.

First: COc1ccc2c(c1)sc1nc(-c3ccccc3)c(-c3ccc(O)c(OC)c3)n12
Second: COc1ccc2[nH]c(=O)c(/C=C/C(=O)/C=C/c3ccc(O)c(OC)c3)cc2c1
The TGI of the first is higher: > 100 µM for the first, 6.97 µM for the second.

Going from `COc1cc2nc(N3CCCC3)nc(Nc3ccccc3)c2cc1OC` to `COc1cc2c(cc1OC)C1CCc3ccccc3CN1CC2` (stereo unspecified), the TGI rises from 3.04 µM to > 100 µM.

`C[C@H]1CCCCC[C@@H]2CC(=O)CC2C(=O)CCC(=O)O1` (stereo partly specified) and `c1ccc2sc(SCN(C3CCCCC3)C3CCCCC3)nc2c1` cannot be ordered by TGI: > 100 µM for the first, > 100 µM for the second.

`NC(CSc1nc2ccccn2c1[N+](=O)[O-])C(=O)O` (stereo unspecified) and `CC(=O)c1nc2ccccc2n1CC(=O)c1ccc(Cl)cc1` cannot be ordered by TGI: > 100 µM for the first, > 100 µM for the second.

`COc1ccc(C2CC(=O)CC(c3ccc(OC)cc3)C23C(=O)NC(=S)NC3=O)cc1` (stereo unspecified) and `COc1ccc(/C=C2\SC(c3ccc(OC)cc3)N(NC(=O)Cc3ccccc3)C2=O)cc1` (stereo unspecified) cannot be ordered by TGI: > 100 µM for the first, > 100 µM for the second.

First: CCCCCCCCCCCC[n+]1ccccc1
Second: CCCNC(C#N)c1ccc(OCCCCCCCCCCOc2ccc(C(C#N)NCCC)cc2)cc1 (stereo unspecified)
The TGI of the first is lower: 22.2 µM for the first, > 100 µM for the second.

Compared with `N#CCN1CCOCCOCCN(CC#N)CCOCCOCC1`, `O=C1C[C@@H](Sc2ccccc2)C2(OCCO2)[C@H]2ON3CCC[C@@H]3[C@@H]12` is lower in TGI: > 100 µM for the first, 3.81 µM for the second.

`Cc1nc(-c2cc3c(ccc4ccccc43)oc2=O)cc2c1c(=O)oc1ccc3ccccc3c12` and `O=C1c2ccccc2C(=O)c2c1ccc(C(=O)O)c2-c1ccc2ccccc2c1` cannot be ordered by TGI: > 100 µM for the first, > 100 µM for the second.

`O=C(Nc1ccccc1)NS(=O)(=O)c1ccc(N2N=C3c4ccccc4CC3C2c2ccccn2)cc1` (stereo unspecified) and `CN(C)/C=C(\C(=O)c1ccccc1)n1nc(-c2ccccc2)cc1-c1ccccc1` cannot be ordered by TGI: 50.7 µM for the first, > 10 µM for the second.

`Cc1ccc(N=Nc2c(N)nn(-c3ccccc3)c2N)cc1` and `Cc1nc2ccccc2c(=O)n1NC(=S)Nc1cccc(Cl)c1` cannot be ordered by TGI: > 100 µM for the first, > 100 µM for the second.

Going from `C/C(=N\NC(=O)c1ccccc1O)c1cccc(/C(C)=N/NC(=O)c2ccccc2O)n1` to `CCOC(=O)CCC(NC(=O)c1ccc(Nc2nc3ccccc3n3cccc23)cc1)C(=O)OCC` (stereo unspecified), the TGI falls from > 100 µM to 23 µM.

Going from `O=C(/C=C/c1ccccc1O)c1cccnc1` to `CCN(CC)CCCOc1cc(O)c2c(=O)cc(-c3ccccc3)oc2c1`, the TGI falls from > 100 µM to 27.4 µM.

`Cc1cc2c(cc1C)C(=O)C1(C2)Cc2c(ccc(C)c2C)C1=O` (stereo unspecified) and `O=C1Nc2cc([N+](=O)[O-])ccc2C(=O)N2CCC[C@@H]12` cannot be ordered by TGI: > 100 µM for the first, > 100 µM for the second.

Compared with `CC[C@H](C)[C@@H]1NC(=O)[C@H](Cc2ccc(O)cc2)N(C)C(=O)[C@H](Cc2ccccc2)NC(=O)CN(C)C(=O)[C@@H]2CCCN2C(=O)[C@@H](Cc2ccccc2)N(C)C(=O)[C@H](CC(C)C)NC1=O` (HELM PEPTIDE1{F.[meY].I.L.[CN([C@H](Cc1ccccc1)C(=O)[*:2])[*:1]].P.[Sar]}$PEPTIDE1,PEPTIDE1,1:R1-7:R2$$$V2.0), `C/C1=C\[C@H](C)C[C@H](C)OC(=O)C[C@H](c2ccc(O)cc2)NC(=O)[C@H](Cc2ccc(O)c(Br)c2)N(C)C(=O)[C@H](C)NC(=O)[C@@H](C)C1` is higher in TGI: 1.99 µM for the first, > 25 µM for the second.

Compared with `CCN(C(=O)CCl)C(C)(C)C(SSSC(c1ccc(Cl)cc1)C(C)(C)N(CC)C(=O)CCl)c1ccc(Cl)cc1` (stereo unspecified), `CNNC(=N\S(=O)(=O)c1cc(C(=O)Nc2ccc(Cl)cc2)c(Cl)cc1SCc1ccccc1)/N=C/c1ccc([N+](=O)[O-])s1` is higher in TGI: 26.5 µM for the first, > 100 µM for the second.

`Cc1ccc(NC(=O)CC/C(CC(=O)c2ccc(F)cc2)=N\NC(=O)C(=O)NN)cc1C` and `Cc1ccsc1C(=O)C(CC(=O)c1cccs1)c1ccsc1` (stereo unspecified) cannot be ordered by TGI: > 100 µM for the first, > 100 µM for the second.

Compared with `CN1CCN(Cc2ccc(NC(=O)c3nc4ccc5[nH]ncc5c4c4c3CCC4)cc2C(F)(F)F)CC1`, `COc1cc2ccnc(-c3c4ccccc4c(N)c4c(OC)c(OC)ccc34)c2cc1OC` is 3.9-fold higher in TGI: 2.76 µM for the first, 10.7 µM for the second.

Going from `CO[C@H]1C[C@@H]2CC[C@@H](C)[C@@](O)(O2)C(=O)C(=O)N2CCCC[C@H]2C(=O)O[C@H]([C@H](C)C[C@@H]2CC[C@@H](OP(C)(C)=O)[C@H](OC)C2)CC(=O)[C@H](C)/C=C(\C)[C@@H](O)[C@@H](OC)C(=O)[C@H](C)C[C@H](C)/C=C/C=C/C=C/1C` to `CC(C)c1c(O[Si](C(C)C)(C(C)C)C(C)C)c2c3c(ccc4c3c1OC4(C)C)C(C)CC2` (stereo unspecified), the TGI rises from 22 µM to > 100 µM.

Compared with `Nc1c(C(=O)c2cccc(CCC3(O)CCCC3)c2)cnn1-c1ccc(F)cc1`, `Cc1ccc(N=Nc2c(N)nn(-c3ccccc3)c2N)cc1` is lower in GI50: > 25 µM for the first, 5.46 µM for the second.

Compared with `COc1ccc2c(c1)sc1nc(-c3ccccc3)c(-c3ccc(O)c(OC)c3)n12`, `COc1ccc2[nH]c(=O)c(/C=C/C(=O)/C=C/c3ccc(O)c(OC)c3)cc2c1` is lower in GI50: > 100 µM for the first, 2.44 µM for the second.

First: COc1cc2nc(N3CCCC3)nc(Nc3ccccc3)c2cc1OC
Second: CCN(CC)CCCOc1cc(O)c2c(=O)cc(-c3ccccc3)oc2c1
The GI50 of the first is 5.1-fold lower: 1.67 µM for the first, 8.53 µM for the second.

Going from `CCCCCCCCCCCC[n+]1ccccc1` to `CC[C@H](C)[C@@H]1NC(=O)[C@H](Cc2ccc(O)cc2)N(C)C(=O)[C@H](Cc2ccccc2)NC(=O)CN(C)C(=O)[C@@H]2CCCN2C(=O)[C@@H](Cc2ccccc2)N(C)C(=O)[C@H](CC(C)C)NC1=O` (HELM PEPTIDE1{F.[meY].I.L.[CN([C@H](Cc1ccccc1)C(=O)[*:2])[*:1]].P.[Sar]}$PEPTIDE1,PEPTIDE1,1:R1-7:R2$$$V2.0), the GI50 falls from 9.89 µM to 0.18 µM (55-fold).

First: O=C(Nc1ccccc1)NS(=O)(=O)c1ccc(N2N=C3c4ccccc4CC3C2c2ccccn2)cc1 (stereo unspecified)
Second: CNNC(=N\S(=O)(=O)c1cc(C(=O)Nc2ccc(Cl)cc2)c(Cl)cc1SCc1ccccc1)/N=C/c1ccc([N+](=O)[O-])s1
The GI50 of the first is lower: 17.3 µM for the first, > 100 µM for the second.

Compared with `CCN(C(=O)CCl)C(C)(C)C(SSSC(c1ccc(Cl)cc1)C(C)(C)N(CC)C(=O)CCl)c1ccc(Cl)cc1` (stereo unspecified), `CN1CCN(Cc2ccc(NC(=O)c3nc4ccc5[nH]ncc5c4c4c3CCC4)cc2C(F)(F)F)CC1` is 12-fold lower in GI50: 13.2 µM for the first, 1.11 µM for the second.

`CO[C@H]1C[C@@H]2CC[C@@H](C)[C@@](O)(O2)C(=O)C(=O)N2CCCC[C@H]2C(=O)O[C@H]([C@H](C)C[C@@H]2CC[C@@H](OP(C)(C)=O)[C@H](OC)C2)CC(=O)[C@H](C)/C=C(\C)[C@@H](O)[C@@H](OC)C(=O)[C@H](C)C[C@H](C)/C=C/C=C/C=C/1C` was tested, and the GI50 was < 0.0149 µM.

`CC1(C)CC(=O)c2c(ccc(C(=O)C[C@H](N)CO)c2N)O1` was tested, and the GI50 was 1.08 µM and 0.149 µM.

`CC1(C)CC(=O)c2c(ccc(C(=O)C[C@H](N)CO)c2N)O1` was tested, and the TGI was 17.5 µM and 15.9 µM.
